Test results from publication PMC6789589, “A Convenient Synthetic Method to Improve Immunogenicity of Mycobacterium tuberculosis Related T-Cell Epitope Peptides” (Vaccines, 2019).
Starred links: 1 amine or outer side, 2 acyl side, 3 side chain; linkers in the order of their positions; H or OH if unused. Positions of bridges follow the written chain, without caps; N, C: chain ends. Residues, ends and D or L forms follow the SMILES beside them. Chains are numbered I, II in the order given. X1 = O=C1CC([*:2])C(=O)N1CCCCCC(=O)[*:1]

Key:
[1] = tested on: murine bone marrow-derived macrophages (BMDMs); experiment: Cellular uptake (internalization) by flow cytometry in BMDM; type: cell-based, mouse; conditions: Cf-labelled compounds, 2.5 µM, 2 h (Figure 2a)
[2] = tested on: MonoMac6 human monocytes (MM6); experiment: Cellular uptake (internalization) by flow cytometry in MonoMac6; conditions: Cf-labelled compounds, MM6, 2.5 µM, 2 h (Figure 2b)

CC[C@H](C)[C@H](NC(=O)CNC(=O)[C@H](Cc1ccccc1)NC(=O)[C@@H](N)Cc1ccccc1)C(=O)N[C@@H](CC(N)=O)C(=O)N[C@H](C(=O)N[C@H](C(=O)N1CCC[C@H]1C(=O)N[C@H](C(=O)N[C@@H](C)C(=O)N[C@@H](CSC1CC(=O)N(CCCCCC(=O)NCCCC[C@H](NC(=O)[C@@H](NC(=O)[C@H](CC(C)C)NC(=O)[C@H](CCCNC(=N)N)NC(=O)[C@@H](NC(=O)[C@H](CC(N)=O)NC(=O)[C@H](CC(N)=O)NC(=O)[C@H](C)NC(=O)[C@@H](NC(=O)[C@H](CC(C)C)NC(=O)[C@H](CCCCN)NC(C)=O)C(C)C)[C@@H](C)O)[C@@H](C)O)C(=O)N2CCC[C@H]2C(=O)N[C@@H](CCCCN)C(=O)NCC(=O)NCC(=O)N[C@@H](CC(C)C)C(=O)N[C@H](C(=O)N[C@@H](CC(=O)O)C(=O)N[C@H](C(=O)N[C@@H](C)C(=O)N2CCC[C@H]2C(=O)N[C@@H](Cc2c[nH]cn2)C(=O)N[C@@H](CCC(N)=O)C(=O)N[C@H](C(=O)N[C@@H](CO)C(=O)N[C@@H](CO)C(=O)N[C@H](C(N)=O)C(C)C)[C@@H](C)CC)[C@@H](C)CC)[C@@H](C)CC)C1=O)C(N)=O)[C@@H](C)CC)[C@@H](C)CC)[C@@H](C)O (some centres unmarked) [A(P)I, KLVANNTRL-TKmal(FFGINTIPIAC)PKG-GLIDIAPHQISSV] (I: Ac-KLVANNTRLTKPKGGLIDIAPHQISSV-NH2 / II: H-FFGINTIPIAC-NH2; linker I:11-II:11 via X1; N-terminus and C-terminus assumed)
cellular uptake (internalization), in words [1]: higher than the uptake of the short epitope peptides | cellular uptake (internalization), in words [2]: higher than the uptake of the short epitope peptides
